Data published in the RNAGym collection of RNA variant scans (doi:10.1101/gad.245936.114).
Variants at the floor of the assay are shown more often than the library holds them.

B1: tRNA (parent)
chain: CUCUCGGUAGCCAAGUUGGUUUAAGGCGCAAGACUUUAAUUUAUCACUACGAAAUCUUGAGAUCGGGCGUUCGACUCGCCCCCGGGAGAUUUUUUCCUCGAGCAA

Variants of: B1
Test: nonsense suppression (GFP-seq) (ratio to wild type); higher = more function; SUP4oc tRNA, yeast GFP reporter sort-seq
How it was run: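 To measure nonsense suppression, tRNA variants from a library carrying ~3% random mutations were integrated into the yeast genome alongside RFP and a GFP ochre reporter under galactose control. Growth took place in raffinose/galactose medium supplemented with 80 mg/L adenine, followed by sorting into GFP/RFP bins and Illumina sequencing of each bin (phred ≥30). For each variant with ≥100 reads and ≥30 cells, the bin median GFP/RFP values were weighted by its estimated cell share per bin and referenced to the unmutated parent tRNA.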

| Variant | nonsense suppression |
| --- | --- |
| C11G U20C G25U U63G C75A G78C | ≤ 0.026 |
| C11U G32U | ≤ 0.026 |
| C11A G67A U76A | ≤ 0.026 |
| C11A A31C C56A C64U | ≤ 0.026 |
| C11U C34A A54U | ≤ 0.026 |
| C11A A14C G18U G88A | ≤ 0.026 |
| C11G A33U U63C | ≤ 0.026 |
| C11U G26A U63C | 0.212 |
| C11A U21C | ≤ 0.026 |
| C11G C79A | ≤ 0.026 |
| C11A G66U U76A | ≤ 0.026 |
| C11U U21C | ≤ 0.026 |
| G10U G19U A74C | ≤ 0.026 |
| C11U C29A U71C G84U | ≤ 0.026 |
| C11A A14C U58A G67C U70C | ≤ 0.026 |
| C11G C12A A31U U57G G66U | ≤ 0.026 |
| C11U A24U C34U | ≤ 0.026 |
| C11A A24U G26C G61U G67C | ≤ 0.026 |
| C11G A62G C83U A87C | ≤ 0.026 |
| C11A A13C G61A | ≤ 0.026 |
| C11A G25C | ≤ 0.026 |

| Variant | nonsense suppression |
| --- | --- |
| C11U A62U C80A | ≤ 0.026 |
| G10U G59U G86C | ≤ 0.026 |
| C11G A14G C29A A54G U57A G88C | ≤ 0.026 |
| C11A A54U | ≤ 0.026 |
| C11A C77G | ≤ 0.026 |
| C11A A24C G28A | ≤ 0.026 |
| C11U U21C G73U G88C | ≤ 0.026 |
| C11G G66U A74G | ≤ 0.026 |
| C11G U16A A31U | ≤ 0.026 |
| C11A C68A G73U | ≤ 0.026 |
| C11U C56U U70G A87U | ≤ 0.026 |
| C11A A31C A87C | ≤ 0.026 |
| C11A G15U G18A | ≤ 0.026 |
| G10U U57C G67C | ≤ 0.026 |
| C11G A23U A33G U71G A89C | ≤ 0.026 |
| C11U U17A G18C A30G | ≤ 0.026 |
| C11G C12U G25U G88U | ≤ 0.026 |
| C11G G18C G59C U63C C82G | ≤ 0.026 |
| C11A U20G C72G C79G | ≤ 0.026 |
| C11A A13G U58A A74G | ≤ 0.026 |
| C11U A14U A30G | ≤ 0.026 |

| Variant | nonsense suppression |
| --- | --- |
| C11G U57C U58C G61C G86A A87U | ≤ 0.026 |
| C11U A33G | ≤ 0.026 |
| G10U G28A G73C A87C | ≤ 0.026 |
| C11U U20A U22C A62U G65U A89C | ≤ 0.026 |
| G10U U16C C34A U70G G73U G78A C82U | ≤ 0.026 |
| G10U U16C C34A U70G G73U G78A C82G | ≤ 0.026 |
| C11G C56G | ≤ 0.026 |
| C11G U20G A33G G61A | ≤ 0.026 |
| C11A U70C C75A | ≤ 0.026 |
| C11A U22G | ≤ 0.026 |
| C11G C27G U70G | ≤ 0.026 |
| G10U U70C | ≤ 0.026 |
| G10U U21A | ≤ 0.026 |
| C11A C83U | ≤ 0.026 |
| C11G A23C U58G A74G | ≤ 0.026 |
| C11U U17G U55G U63C C79U C82G | ≤ 0.026 |
| C11U G18A | ≤ 0.026 |
| C11U A60G G69U G84A | ≤ 0.026 |
| C11G U71C G78C | ≤ 0.026 |
| C11U C77G | ≤ 0.026 |
| C11A A14C A31U C34U | ≤ 0.026 |

| Variant | nonsense suppression |
| --- | --- |
| C11A G15U | ≤ 0.026 |
| C11U G32A U63G C68U | ≤ 0.026 |
| C11U C56G G73C G78A C79G | ≤ 0.026 |
| G10U C83U | ≤ 0.026 |
| G10U U20C | ≤ 0.026 |
| C11G U57G C77G | ≤ 0.026 |
| C11G U57G C77U | ≤ 0.026 |
| C11G A24G G69A A74G | ≤ 0.026 |
| C11A U20A A24G A30G G69U C75A | ≤ 0.026 |
| C11A U16C | ≤ 0.026 |
| C11A U22G C27G G28A | ≤ 0.026 |
| C11U G18A U76C | ≤ 0.026 |
| G10U C82G | ≤ 0.026 |
| C11U A62U U63C | ≤ 0.026 |
| C11U G26A A60U C80A | ≤ 0.026 |
| C11U G32U G69A C82G G84A G88A | ≤ 0.026 |
| C11A U57C | ≤ 0.026 |
| C11A A33G G67A G86A | ≤ 0.026 |
| C11G C27A U55C A60C | ≤ 0.026 |
| C11G U17A G28A U55C | ≤ 0.026 |
